Inconclusive results, whose numbers are uncertain, are shown with a selection of clear calls. A potency beside an inconclusive call is a rough fit, not a confirmed value. The source made the active and inactive calls. Calls follow the shape of the dose curve; as a rule, active = well fitted inhibition curve with a large enough effect; inconclusive = small, poorly fitted or top-dose-only effect; inactive = no such curve, though single readings can be large or run the other way.
target: Cytochrome P450 2C19 (Homo sapiens) (UniProt P33261); assay: qHTS Assay for Inhibitors and Substrates of Cytochrome P450 2C19 (AID 899); details: recombinant CYP2C19, luciferin-H EGE luminescence; series mostly up to 11.4 µM; also: nearly all actives have a fitted effect of over 60% in size
UniProt P33261, sequence (P33261 whole entry, looked up): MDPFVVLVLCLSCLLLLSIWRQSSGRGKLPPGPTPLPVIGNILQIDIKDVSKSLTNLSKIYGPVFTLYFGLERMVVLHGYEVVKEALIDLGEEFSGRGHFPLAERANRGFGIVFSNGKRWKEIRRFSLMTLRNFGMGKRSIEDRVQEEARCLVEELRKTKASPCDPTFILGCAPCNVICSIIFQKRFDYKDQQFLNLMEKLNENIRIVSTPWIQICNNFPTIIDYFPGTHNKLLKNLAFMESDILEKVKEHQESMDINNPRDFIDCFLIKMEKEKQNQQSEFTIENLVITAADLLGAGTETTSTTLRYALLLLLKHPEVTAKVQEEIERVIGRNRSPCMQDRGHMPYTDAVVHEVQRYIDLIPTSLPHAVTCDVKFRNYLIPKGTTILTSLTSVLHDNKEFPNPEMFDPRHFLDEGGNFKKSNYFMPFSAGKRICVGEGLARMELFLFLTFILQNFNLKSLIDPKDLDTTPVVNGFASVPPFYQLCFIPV
Method: NIH Molecular Libraries Screening Centers Network [MLSCN]
NIH Chemical Genomics Center [NCGC]
The P450 gene superfamily is involved in the metabolism and clearance of xenobiotics. This assay used human CYP2C19 to measure the hydroxylation of ethylene glycol ester of 6' deoxyluciferin (Luciferin-H EGE; […]) to luciferin. The luciferin is then measured by luminescence after the addition of a luciferase detection reagent. Luciferin-H EGE concentration in the assay was equal to its KM for CYP2C19. Inhibitors and some substrates limit the production of luciferin, and decrease measured luminescence.
NCGC Assay Protocol Summary:
Two uL of enzyme and substrate mix (final concentrations: 5nM CYP2C19, 10uM Luciferin-H EGE, 50mM KPO4) were dispensed into a white, solid bottom 1536-well microtiter plate. 23nL of compound was transferred by a pin tool. The plate was incubated at 37C for 10 min. Two uL of an NADPH regeneration solution (Promega supplied reagent) was dispensed and the reaction was allowed to continue for 60 min at 37C. Then the reaction was stopped by reconstituted luciferin detection buffer. After another 20 min of incubation the plate was read on the ViewLux (Perkin Elmer) at 60 sec exposure and 2x2 binning. This protocol was carried out with Promega-Glo reagents and further information can be found at http://www.promega.com/tbs/tb325/tb325.pdf. Data were normalized to the to AC100 inhibition (57uM ketoconazole).
Keywords: P450, CYP2C19, Luciferase, MLSMR, MLSCN, NIH Roadmap, qHTS, NCGC
Potency is read from the fitted curve at half-maximal effect; tags tell the direction and shape of the fitted curve.

Structure (SMILES)	Potency
N#CCCSC(=S)[C@H]1CCCC1=N	inconclusive: 5010 nM [inhibitor, partial curve]
N#Cc1ccccc1-c1ccc2ncnc(NC3CC3)c2c1	inconclusive: 7940 nM [inhibitor, full curve, poor fit]
OCCN1CCN(CCC=C2c3ccccc3Sc3ccc(Cl)cc32)CC1	inconclusive: 2510 nM [inhibitor, full curve, poor fit]
NS(=O)(=O)c1ccc(N=Nc2ccc[nH]c2=O)cc1	inconclusive: 3980 nM [inhibitor, single point]
C[C@@H]1O[C@@H](OC[C@@H]2O[C@@H](Oc3c(-c4ccc(O)c(O)c4)oc4cc(O)cc(O)c4c3=O)[C@H](O)[C@H](O)[C@@H]2O)[C@H](O)[C@H](O)[C@@H]1O	inactive
Cc1cc(SCC(=O)c2ccc(Br)cc2)cc(C)[o+]1	inconclusive: 398 nM [inhibitor, partial curve]
N#Cc1cccc(NC(=O)N2CC3(CCN(C(=O)c4ccco4)CC3)C2)c1	inconclusive: 2000 nM [inhibitor, full curve, poor fit]
CC1(O)C(=O)C=C2C=C(CCCCOCc3ccccc3)OC=C2C1=O (stereo not given)	inactive
O=S(=O)(O)c1ccc2c(N=Nc3c(O)ccc4ccccc34)cccc2c1	inconclusive: 631 nM [inhibitor, partial curve]
O=C(N/N=C\c1ccc2c(c1)CCC2)c1ccccc1O	inconclusive: 251 nM [inhibitor, full curve, poor fit]
O=C(O)[C@H](Cc1cc(I)c(O)c(I)c1)C1CCCCC1	inconclusive: 2000 nM [inhibitor, full curve, poor fit]
CC(C)(C)COS(=O)OCC(C)(C)C	inactive
O=C(O)/C=C\c1c2ccc(=O)c(O)c-2oc2c(O)c(O)ccc12	inconclusive: 3160 nM [inhibitor, single point]
CN(C)CCCn1c2c3ccccc3ccc2c2oc(=O)c3ccccc3c21	inconclusive: 794 nM [inhibitor, full curve]
COc1ccccc1-c1cncnc1NCCc1cnc[nH]1	active: 79.4 nM
CCCC(c1cc(C(C)(C)C)c(O)cc1C)c1cc(C(C)(C)C)c(O)cc1C	inconclusive: 6310 nM [inhibitor, single point]
CN(Cc1cc(Cl)cc(Cl)c1O)Cc1c(O)ccc2ccccc12	active: 1260 nM
CC(C)C[C@@H](CC(=O)N[C@H](CC(=O)N[C@@H]1CCCC[C@H]1C(=O)N[C@H](CC(=O)N[C@@H](CCC(=O)O)CC(=O)O)Cc1ccccc1)C(C)C)NC(=O)[C@@H]1CNCC[C@H]1N	inactive
Nc1nc(N)c(N=Nc2ccc(C(=O)O)c(O)c2)c(N)n1	inconclusive: 631 nM [inhibitor, partial curve, poor fit]
NC(CSS(=O)(=O)O)=N[C@@H]1C[C@H]2CC[C@@H]1C2	inactive

Structure (SMILES)	Potency
Nc1nc(-c2cccs2)cs1	inconclusive: 3980 nM [inhibitor, partial curve, poor fit]
COCC(=O)N1CCC[C@@]2(CCN(C(=O)Nc3cccc(C#N)c3)C2)C1	inactive
O=C(O)c1cc(-c2ccc(-c3ccccc3)cc2)nc2cc3ccccc3cc12	inconclusive: 3980 nM [inhibitor, single point]
Cc1ccc(C2=C(Cl)C(=O)C(c3ccc(C)cc3)=C(Cl)C2=O)cc1	inconclusive: 3980 nM [inhibitor, partial curve, poor fit]
O=C(O)NCc1ccccc1 (tested in a mixture with another compound)	inconclusive: 2510 nM [inhibitor, partial curve]
Cc1ncc2c(c1O)COP(=O)(O)OC2	inconclusive: 5010 nM [inhibitor, full curve]
N#CC(C#N)=NNc1ccc2cn[nH]c2c1	inconclusive: 3160 nM [inhibitor, single point]
COc1cc2nc(N3CCN(C(=O)[C@@H]4COc5ccccc5O4)CC3)nc(N)c2cc1OC	inconclusive: 501 nM
NC[C@](O)(CS(=O)(=O)O)c1ccc(Cl)cc1	inactive
CSc1ccc(NC(=O)Nc2cc(C)ccn2)cc1	inconclusive: 3980 nM [inhibitor, partial curve]
C[C@H](NC(=O)c1ccc(Cl)c(Cl)c1)c1ccc(-c2ccccc2)cc1	active: 1260 nM
Clc1ccc2c(c1)N(CCCN1CCCC13CCCCC3)c1ccccc1S2	inconclusive: 5010 nM [inhibitor, partial curve]
COc1ccc(C(=O)CC(=O)c2c(O)cc(OC)cc2OC)cc1	active: 398 nM
O=C(Nc1ccc2c(c1)Cc1ccccc1-2)[C@@H]1[C@H](C(=O)O)[C@]2(Cl)C(Cl)=C(Cl)[C@@]1(Cl)C2(Cl)Cl	inconclusive: 3160 nM [inhibitor, single point]
CC(C)[C@@H]1OC(=O)C=CC=CC=CC=CC=CC[C@@H](O)[C@H](C)[C@@H](O)C[C@H](O)C[C@H](O)C[C@H](O)C[C@H](O)C[C@H](O)C[C@H](O)C=C[C@@H]1C	inactive
CSc1nnnc2ccccc12	inactive
COc1cccc(Cn2c(=O)c(-c3ccc(Cl)cc3)nc3cnc(OC)nc32)c1	inconclusive: 1260 nM [inhibitor, partial curve]
O[C@@H](c1cc([C@@]23C[C@H]4CC[C@@H]2C[C@H](C4)C3)nc2c(Cl)cc(Cl)cc12)[C@@H]1CCCCN1	inconclusive: 794 nM [inhibitor, partial curve, poor fit]
CC[C@H](NC(C)C)[C@H](O)c1ccc(O)c(O)c1	inconclusive: 7940 nM [inhibitor, single point]
O=C(Nc1ccccc1)OC[C@H](CN1CCCCC1)OC(=O)Nc1ccccc1	inconclusive: 5010 nM [inhibitor, partial curve, poor fit]
